83 molecules from PubChem BioAssay AID1346428 (National Center for Advancing Translational Sciences (NCATS), 2018) can be followed below.

In all, about 48,000 compounds went through this assay and about 1,200 (2.5%) were called active. Roughly 2% stayed inconclusive and do not appear here.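 The calls were made as follows: active = activation of at least 60% and not above a set upper limit (about 1 call in 100 departs from these limits); inconclusive = activation of 40% to 60%, or above that upper limit; inactive = activation under 40%.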 The list shows a part of the results.

This experiment concerns the target Probable G-protein coupled receptor 32 (Homo sapiens) (UniProt O75388). As to the kind of experiment: qHTS for Agonists of Human Resolvin D1 Receptor DRV1. Also: 0% is about no effect. To be noted: CHO-K1 GPR32 beta-arrestin PathHunter luminescence, 90 min; at 76.9 µM; stronger effect = higher value; zero percent set by DMSO-only wells. The method, boiled down: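 Readings come from a cell-based beta-arrestin complementation format: CHO-K1 GPR32 stable cells (2,500/well) treated 90 min with compounds, then beta-Gal substrate added for 1 h before chemiluminescence imaging.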
UniProt O75388, sequence (O75388 whole entry, looked up): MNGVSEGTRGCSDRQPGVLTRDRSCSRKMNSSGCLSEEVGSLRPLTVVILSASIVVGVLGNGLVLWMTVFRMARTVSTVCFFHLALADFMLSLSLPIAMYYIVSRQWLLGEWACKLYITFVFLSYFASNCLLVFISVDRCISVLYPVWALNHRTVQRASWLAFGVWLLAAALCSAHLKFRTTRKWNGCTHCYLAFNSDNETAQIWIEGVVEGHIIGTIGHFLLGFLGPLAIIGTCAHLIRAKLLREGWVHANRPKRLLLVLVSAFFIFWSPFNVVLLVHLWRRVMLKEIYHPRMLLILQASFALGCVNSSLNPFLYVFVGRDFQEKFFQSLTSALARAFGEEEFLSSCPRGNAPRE
On the technique in general: qHTS replaces the single test concentration by a dilution series.
`CCc1cccc(NC(=O)C(c2ccccc2)N2Cc3ccccc3C2=O)c1` (stereo not drawn): the activation is inactive: -27.6%. As for `COc1cc(C)c(C)cc1S(=O)(=O)Nc1cccc(-c2ccc(N3CCOCC3)nn2)c1`, the activation is inactive: -2.01%. Consider `CCOCc1ccccc1Nc1ncnc2onc(-c3ccc(Cl)cc3)c12`, for which the activation is inactive: -0.585%. On to `COc1ccccc1OCC(O)CO` (stereo not drawn), for which the activation was inactive: 8.89%. Consider `COc1ccc(CCNC(=O)C(=O)NCC(c2ccco2)S(=O)(=O)c2ccc(F)cc2)cc1` (stereo not drawn), for which the activation is inactive: 19.1%.

For `COCCn1c(=N)c(C(=O)NC(C)c2ccccc2)cc2c(=O)n3cc(C)ccc3nc21` (stereo not drawn), the activation is inactive: -7.33%. In the case of `O=C(NCCc1nc2ccccc2n1Cc1ccc(F)cc1)c1ccco1`, the activation is inactive: -5.84%. Turning to `COc1ccc(CNC(=O)c2ccc(CS(=O)(=O)c3ccccc3OC)o2)cc1`, the activation was inactive: -4.95%. `CCOc1ccc(CCNC(=O)Cn2nc(-c3ccc(C)cc3)ccc2=O)cc1OCC`: the activation is inactive: -22.9%. Regarding `CCN(CC)S(=O)(=O)c1ccc2c(c1)N(CC(=O)N1CCN(c3ccc(F)cc3)CC1)C(=O)CO2`, the activation is inactive: -31.2%. Consider `COc1cc(CN2CCN(S(=O)(=O)c3ccccc3)CC2)cc(OC)c1O`, for which the activation was inactive: 13.9%. As to `CCc1ccccc1NC(=O)C1=C(C)C(=O)OC12CCCCCC2`, the activation was inactive: 0.79%.

`O=C(CNS(=O)(=O)c1cccs1)N1CCN(c2cccc(C(F)(F)F)c2)CC1`: the activation was inactive: 8.56%. In the case of `Cc1cccc(NC(=O)C(=O)NCC(c2ccc3c(c2)OCO3)N2CCN(C)CC2)c1C` (stereo not drawn), the activation is inactive: 13.9%. In the case of `COc1ccc(CNC(=O)c2cc3c(=O)oc4ccc(C)cc4c3s2)c(OC)c1`, the activation was inactive: -1.35%. For `COc1ccc(OC)c(NC(=O)c2cccn2-c2nnc(N3CCCCC3)s2)c1`, the activation was inactive: -23.8%. Next, `COc1cc(NC(=O)CSc2ncc(S(=O)(=O)c3ccc(Br)cc3)c(=O)[nH]2)cc(OC)c1`: inactive: -9.9%; `Cc1c2cnn(CC(=O)NCCc3ccccc3)c(=O)c2c(C)n1Cc1ccccc1`: inactive: -14.1%. `CC[C@]1(O)C[C@H]2CN(CCc3c([nH]c4ccccc34)[C@@](C(=O)OC)(c3cc4c(cc3OC)N(C=O)[C@H]3[C@@](O)(C(=O)OC)[C@H](OC(C)=O)[C@]5(CC)C=CCN6CC[C@]43[C@@H]65)C2)C1`: the activation is inactive: -6.89%. `Fc1ccc(-c2noc3ncnc(NC4CCCCC4)c23)cc1`: the activation is inactive: -10.6%.

With `Cc1cccc(N2CCN(C(=O)CCCCn3c(=O)[nH]c4ccsc4c3=O)CC2)c1C`, the activation was active: 61.7%.

Consider `COc1ccc(Cn2c(=O)c3oc4ccccc4c3n(Cc3ccc(F)cc3)c2=O)cc1`, for which the activation was inactive: -6.94%. As for `COc1cc(C2CC(=O)Nc3cc4c(cc32)OCCO4)cc(Br)c1OC` (stereo not drawn), the activation is inactive: -5.01%. The value for `Cc1cc(Nc2cccc(Cl)c2)nc2ccc(NC(=O)Cc3cccc(C(F)(F)F)c3)cc12` was inactive: 6.12%; that for `CCCCOc1cccc(C(=O)N(Cc2sccc2C)C2CCS(=O)(=O)C2)c1` (stereo not drawn) was inactive: -25.8%. For the molecule `CCN(CC)S(=O)(=O)c1ccc2oc(C(=O)N(C)Cc3ccccc3)c(C)c2c1`, the activation is inactive: 0.169%. With `COc1ccc(CNC(=O)c2ccc(NC(=O)N3CCCCc4ccccc43)cc2)cc1`, the activation is inactive: 6.85%. With `CC(=O)[C@H]1CC[C@H]2[C@@H]3C=CC4=CC(=O)CC[C@@]4(C)[C@@H]3CC[C@]12C`, the activation is inactive: 7.22%. Take `Cc1ccc(C)c(CN2C(=O)c3ccccc3S(=O)(=O)c3ccc(C(=O)N4CCCCC4)cc32)c1`: the activation was inactive: -21.4%. As to `COc1cc(NC(=O)c2cc(S(=O)(=O)N3CCc4ccccc43)cn2C)cc(OC)c1OC`, the activation is inactive: -8.78%. The value for `CC(C)n1c(=N)c(C(=O)NCc2ccccc2)cc2c(=O)n3ccccc3nc21` was inactive: -8.21%. The value for `CCc1ccccc1N(C)C(=O)c1cc2c(=O)oc3ccccc3c2s1` was inactive: 14.5%. Consider `CC(=O)c1cccc(NC(=O)c2noc3c2CCCC3)c1`, for which the activation was inactive: 5.53%. On to `CC(C)CC(=O)Nc1c(C(=O)N2CCN(c3ccccc3)CC2)oc2ccccc12`, for which the activation is inactive: -24.3%. The value for `O=C(C1CCC1)N1CCc2cc(S(=O)(=O)NCc3ccc(F)cc3)ccc21` was inactive: -2.22%; that for `COc1ccc(C)cc1NC(=O)N1CCCn2nc(C)cc21` was inactive: -5.4%; that for `O=C(COc1ccccc1[N+](=O)[O-])N(Cc1ccco1)c1ccccn1` was inactive: 12.8%. Turning to `COc1cc2c(=O)n(CCc3ccccc3)c(=O)n(CC(=O)Nc3ccccc3)c2cc1OC`, the activation was inactive: 3.14%. Next, `COc1ccc(OC)c(NC(=O)/C=C/c2ccc(C)o2)c1`: inactive: 30.2%; `CCOc1ccccc1NC(=O)Cn1c(=O)n(-c2cccc(C)c2)c(=O)c2c1c1cc(OC)ccc1n2C`: inactive: -7.76%.

Turning to `COC(=O)c1ccccc1NC(=O)N1CCc2c(sc3c2CCCC3)C1c1ccc(F)cc1` (stereo not drawn), the activation was inactive: -0.103%. As for `O=C(COc1ccccc1)NC1CC(=O)N(c2ccc3c(c2)OCCO3)C1` (stereo not drawn), the activation is inactive: -1.29%. With `COc1ccc(C(=O)Cn2c(=O)c(-c3cc(C)ccc3NC(C)=O)nc3ccccc32)cc1`, the activation is inactive: -3.91%.

On to `CC(=O)c1cc2c(cc1N/C(=N/S(=O)(=O)c1ccc(Br)cc1)c1ccccc1)OCO2`, for which the activation was inactive: -33.3%.

On to `O=C(Cn1c(=O)n(CC2CCC(C(=O)NCCc3ccccc3)CC2)c(=O)c2ccccc21)Nc1cccc(F)c1` (stereo not drawn), for which the activation was inactive: 20.3%.

Turning to `Cc1ccccc1Cn1c(CN2CCCC(C)C2)nc2c1c(=O)n(C)c(=O)n2C` (stereo not drawn), the activation is inactive: 1.24%. The value for `Cc1ccc(C)c(N2CCN(C(=O)c3noc4c3CCCCC4)CC2)c1` was inactive: -28.5%. With `CCOc1ccc(C(=O)c2cn(CC(=O)Nc3ccc(Cl)cc3)c3cc4c(cc3c2=O)OCCO4)cc1`, the activation is inactive: 18%. Consider `CCc1cccc(C)c1NC(=O)c1cccc(C(=O)Nc2c(C)cccc2CC)c1`, for which the activation is inactive: -6.13%.

Regarding `CCC(C)NC(=O)CCc1c(C)nc2nc(-c3cc(OC)cc(OC)c3)nn2c1C` (stereo not drawn), the activation was inactive: -4.82%. In the case of `Cc1ccc(NC(=O)[C@@H](c2ccccc2)N2Cc3ccccc3C2=O)cc1`, the activation was inactive: -29.5%. The value for `COC(=O)c1cc2oc3ccccc3c2n1Cc1nc(-c2ccccc2C)oc1C` was inactive: -18.4%; that for `O=C(CSCc1cc(=O)c2cc(F)ccc2[nH]1)Nc1ccccc1Cl` was inactive: 22.1%; that for `Cc1cccc(N2CCN(S(=O)(=O)c3cc(C(=O)Nc4ccccc4Cl)ccc3F)CC2)c1C` was inactive: -11.2%. Regarding `CCc1ccccc1NC(=O)CSc1nnc2ccc3ccccc3n12`, the activation is inactive: -9.72%. The value for `COc1ccc(OC)c(CCNc2nc3ccccc3c3nc(-c4cccnc4)nn23)c1` was inactive: -28.4%; that for `Brc1ccc(-n2nc(-c3ccccc3)c3cnc4cc5c(cc4c32)OCO5)cc1` was inactive: -1.21%; that for `Cc1ccc2[nH]c(CSc3nnc(NC(=O)c4ccc(Cl)cc4)s3)cc(=O)c2c1` was inactive: 18.7%. As for `Cc1cc(=O)[nH]c(=S)[nH]1`, the activation was inactive: 21.9%. `Cc1cc(S(=O)(=O)C(CNC(=O)COc2ccc(Cl)cc2)c2cccs2)ccc1F` (stereo not drawn): the activation is inactive: 16.5%. Turning to `CCCN(CCC)C(=O)c1c2c(nc3ccccc13)C(=O)N(C1CCCCC1)C2`, the activation was inactive: -12%.

As for `Cc1ccc(CCNC(=O)C2CCN(Cc3nc(-c4ccccc4C)oc3C)CC2)cc1`, the activation is inactive: 34.9%.

For `CCc1ccc(OCC2c3cc(OC)c(OC)cc3CCN2C(=O)COc2ccccc2)cc1` (stereo not drawn), the activation was inactive: -20.9%. On to `CCCN(C(=O)c1coc(=O)c2ccccc12)c1ccccc1C`, for which the activation is inactive: 20.9%. As to `Cc1ccc(N2C(=O)CSC23C(=O)N(CC(=O)Nc2ccc(C(C)C)cc2)c2ccccc23)cc1C` (stereo not drawn), the activation was inactive: 21.6%. The value for `CCOc1ccc(CCNC(=O)c2cc3c(-c4ccc(OC)c(OC)c4)nn(C)c3s2)cc1OCC` was inactive: -2.39%; that for `CCn1c(=O)cc(OCC(=O)Nc2cc(Cl)c(OC)cc2OC)c2ccccc21` was inactive: 7.81%. The value for `CCOc1ccc(NC(=O)Cn2cc(C(=O)c3ccco3)c3ccccc32)cc1` was inactive: -14.6%; that for `Cc1coc2cc3oc(=O)c(CC(=O)NCCc4ccccc4)c(C)c3cc12` was inactive: -13.7%; that for `COc1cccc(NC(=O)C(Cc2ccccc2)NS(=O)(=O)c2ccc3c(c2)oc(=O)n3C)c1` (stereo not drawn) was inactive: -2.07%.

`COc1ccc(-n2nc(C(=O)Nc3cccc(C)n3)c3c4ccccc4n(C)c3c2=O)cc1Cl`: the activation was inactive: 6.33%.

On to `O=C(Nc1cccnc1Cl)c1cc(-c2cccc(Cl)c2)on1`, for which the activation was inactive: -4.03%.

For the molecule `CCOc1ccc(CCNC(=O)CCc2cn(Cc3ccc(F)cc3)c3ccccc23)cc1`, the activation is inactive: -32.5%.

Regarding `COc1ccc(-c2nc(C)c(CCNC(=O)C(=O)Nc3ccccc3OC)s2)cc1`, the activation is inactive: 46.6%. `COc1ccc(CCn2cc3c(c2-c2ccc(Br)cc2)c(=O)n(C)c(=O)n3C)cc1OC`: the activation was inactive: -43.1%.

Turning to `Cc1ccc(C(C)C)c(OCC(=O)NCC2(N(C)C)CCCCC2)c1`, the activation is inactive: 10.8%. On to `Cc1ccccc1C(=O)n1nc(-c2ccco2)nc1NCc1ccc(Cl)cc1`, for which the activation is inactive: 7.84%. Regarding `Cc1ccccc1N1CC(c2nc3ccccc3n2CCC2CCCCC2)CC1=O` (stereo not drawn), the activation was inactive: -24.4%. For the molecule `COc1ccc(CNC(=O)CCn2cccn2)cc1`, the activation was inactive: 22%.

On to `Cc1ccc(C)c(N2CCN(C(=O)C3CCCN(S(=O)(=O)c4ccc5c(c4)oc(=O)n5C)C3)CC2)c1` (stereo not drawn), for which the activation is inactive: 18.5%. Take `CCOc1cc(OCC)c(C(=O)CCC(=O)O)cc1OCC`: the activation was inactive: 40.6%. Consider `O=C(COc1ccc(Cl)cc1)Nc1ccc(-c2nc3ccccc3s2)c(O)c1`, for which the activation is inactive: -6.3%.

As to `Cc1ccc(-c2nnc(SCc3ccccc3C)o2)cc1`, the activation was inactive: 10.1%.
